From patent US20210147549A1 (MOMENTA PHARMACEUTICALS, published 2021)

Target: T1, Recombinant, Histidine tagged, PD-L1 (9049-B7 R&D Systems) (UniProt Q9NZQ7 in part)
T1 construct: Bought protein; not shown: histidine tag
Assay: SPR, His-tagged PD-L1 captured by anti-6xHis antibody, antibody or construct as analyte, 1:1 Langmuir model

T1 sequence (Q9NZQ7 19-239 limits assumed): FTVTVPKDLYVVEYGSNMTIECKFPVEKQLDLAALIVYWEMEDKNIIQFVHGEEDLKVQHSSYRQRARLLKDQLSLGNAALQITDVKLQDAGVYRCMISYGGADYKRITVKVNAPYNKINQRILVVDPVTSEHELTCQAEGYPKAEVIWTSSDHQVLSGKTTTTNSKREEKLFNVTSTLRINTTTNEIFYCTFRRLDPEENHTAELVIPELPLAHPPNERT

Binder | Kd [nM]
Fc-antigen binding domain construct 8 (PD-L1) (Fc fusion, also called S3W-AA-AVE; Construct 8 (anti-PD-L1)) [human IgG1 Fc with D399K K409D (EU numbers) left out][about 250 residues left out] heavy: EVQLLESGGGLVQPGGSLRLSCAASGFTFSSYIMMWVRQAPGKGLEWVSSIYPSGGITFYADTVKGRFTISRDNSKNTLYLQMNSLRAEDTAVYYCARIKLGTVTTVDYWGQGTLVTVSSASTKGPSVFPLAPSSKSTSGGTAALGCLVKDYFPEPVTVSWNSGALTSGVHTFPAVLQSSGLYSLSSVVTVPSSSLGTQTYICNVNHKPSNTKVDKKV[human IgG1 Fc with changes left out] light: QSALTQPASVSGSPGQSITISCTGTSSDVGGYNYVSWYQQHPGKAPKLMIYDVSNRPSGVSNRFSGSKSGNTASLTISGLQAEDEADYYCSSYTSSSTRVFGTGTKVTVLGQPKANPTVTLFPPSSEELQANKATLVCLISDFYPGAVTVAWKADGSPVKAGVETTKPSKQSNNKYAASSYLSLTPEQWKSHRSYSCQVTHEGSTVEKTVAPTECS | 0.027
Fc-antigen binding domain construct 9 (PD-L1) (Fc fusion, also called S3A-AA-AVE; Construct 9 (anti-PD-L1)) heavy 1: EVQLLESGGGLVQPGGSLRLSCAASGFTFSSYIMMWVRQAPGKGLEWVSSIYPSGGITFYADTVKGRFTISRDNSKNTLYLQMNSLRAEDTAVYYCARIKLGTVTTVDYWGQGTLVTVSS[human IgG1 constant region with D399K K409D (EU numbers) left out][about 250 residues left out] heavy 2: EVQLLESGGGLVQPGGSLRLSCAASGFTFSSYIMMWVRQAPGKGLEWVSSIYPSGGITFYADTVKGRFTISRDNSKNTLYLQMNSLRAEDTAVYYCARIKLGTVTTVDYWGQGTLVTVSSASTKGPSVFPLAPSSKSTSGGTAALGCLVKDYFPEPVTVSWNSGALTSGVHTFPAVLQSSGLYSLSSVVTVPSSSLGTQTYICNVNHKPSNTKVDKKV[human IgG1 Fc with changes left out] light: QSALTQPASVSGSPGQSITISCTGTSSDVGGYNYVSWYQQHPGKAPKLMIYDVSNRPSGVSNRFSGSKSGNTASLTISGLQAEDEADYYCSSYTSSSTRVFGTGTKVTVLGQPKANPTVTLFPPSSEELQANKATLVCLISDFYPGAVTVAWKADGSPVKAGVETTKPSKQSNNKYAASSYLSLTPEQWKSHRSYSCQVTHEGSTVEKTVAPTECS | 0.034
